Assay results from PubChem BioAssay (Tox21).
Inconclusive results, whose numbers are uncertain, are shown with a selection of clear calls. No potency is given beside an inconclusive call; the fits are too rough. Active and inactive are the calls of the source. Calls come from the whole dose curve; as a rule, active = well fitted cell-killing curve with a large enough effect in the repeat runs; inconclusive = weak or mixed curves, or effect the other way; inactive = no such curve, though single readings can be large or run the other way.

assay: qHTS assay to identify small molecule antagonists of the glucocorticoid receptor (GR) signaling pathway - cell viability counter screen (AID 720693); settings: GR-bla HeLa viability, CellTiter-Glo luminescence, 18 h, with 5 nM dexamethasone present; viability change, negative = cytotoxic: at 58.5 µM (top of the series); note: nearly all actives have a fitted effect of over 55% in size
% is set by controls: 0 for no effect and ±100 for the full control effect; potency is the fitted concentration of half-maximal effect; tags give direction and shape of the fitted curve.

Row | Structure (SMILES) | viability change, negative = cytotoxic | Potency
1 | CC(C)(C)NCC(O)c1ccc(O)c(CO)c1 (stereo unspecified) | inconclusive: 35.3% | 
2 | CC(COCC(C)OC(=O)c1ccccc1)OC(=O)c1ccccc1 (stereo unspecified) |  | inactive
3 | O=C(Cn1ccnc1[N+](=O)[O-])NCCO |  | inconclusive [cytotoxic, single point]
4 | CCC(=O)OCc1ccccc1 |  | inconclusive [rising, partial curve, poor fit]
5 | C=CC(=O)OCCCCCCCC(C)C |  | inactive
6 | Fc1ccccc1 | inactive: -6.95% [at 78.9 µM] | 
7 | CC(C)(C)C(=O)C1C(=O)c2ccccc2C1=O |  | inconclusive [cytotoxic, partial curve]
8 | Cc1ccccc1Br |  | inconclusive [rising, single point]
9 | O=C1CC2(CCCC2)CC(=O)N1CCCCN1CCN(c2ncccn2)CC1 |  | inconclusive [cytotoxic, partial curve]
10 | CCn1cc(C(=O)O)c(=O)c2cc(F)c(N3CCNCC3)cc21 |  | inactive
11 | C=CC(=C)CCCC(C)(C)OC(C)=O | inactive: -6.1% | 
12 | C=C1CC[C@H](O)C/C1=C\C=C1/CCC[C@]2(C)[C@@H]([C@H](C)CCCC(C)C)CC[C@@H]12 |  | inconclusive [cytotoxic, single point]
13 | O=C(O)CCCCCCCC(=O)O |  | inactive
14 | CCCCCCOC(C)=O |  | inactive
15 | CCC(=O)C1CC(C(C)C)CC=C1C (stereo unspecified) |  | inconclusive [rising, full curve, poor fit]
16 | Cc1cc(O)cc2c1O[C@](C)(CCC[C@H](C)CCC[C@H](C)CCCC(C)C)CC2 | inconclusive: 31.7% | 
